Where “and” joins values, the source holds several entries; their conditions need not be identical. Equal values may be shown once. Screen size: about 16,000 compounds; about 40 (0.2%) were called active. Not shown: some 1% with an inconclusive outcome. The call rests on the fitted dose curve; in most records, active means well fitted activation curve with a large enough effect; inconclusive means small, poorly fitted or top-dose-only effect, or another doubt; inactive means no such curve, though single readings can be large or run the other way. The list shows a part of the results.
Target: Rap guanine nucleotide exchange factor 4 (Homo sapiens) (UniProt Q8WZA2)
Assay: Validation qHTS for agonist of cAMP-regulated guanine nucleotide exchange factor 4 (EPAC2);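 further: exchange makes BODIPY-GDP fluorescence drop when released from Rap1B; series mostly up to about 150 µM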
Details: EPAC2 Rap1B BODIPY-GDP exchange, fluorescence; activation: hits give high values
Procedure, shortened: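 Signal normalized against 6.5 mM cAMP as agonist control. Mix of EPAC2 (100 nM), RAP1B-BODIPY-GDP (250 nM) and GDP (50 uM) was read kinetically at 480/540 nm, every 5 min over 30 min, after 5 min room-temperature incubation with compound.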
On the % scale 0 is the no-effect control and ±100 the full control effect.

Sequence of UniProt Q8WZA2 (Q8WZA2 whole entry, looked up): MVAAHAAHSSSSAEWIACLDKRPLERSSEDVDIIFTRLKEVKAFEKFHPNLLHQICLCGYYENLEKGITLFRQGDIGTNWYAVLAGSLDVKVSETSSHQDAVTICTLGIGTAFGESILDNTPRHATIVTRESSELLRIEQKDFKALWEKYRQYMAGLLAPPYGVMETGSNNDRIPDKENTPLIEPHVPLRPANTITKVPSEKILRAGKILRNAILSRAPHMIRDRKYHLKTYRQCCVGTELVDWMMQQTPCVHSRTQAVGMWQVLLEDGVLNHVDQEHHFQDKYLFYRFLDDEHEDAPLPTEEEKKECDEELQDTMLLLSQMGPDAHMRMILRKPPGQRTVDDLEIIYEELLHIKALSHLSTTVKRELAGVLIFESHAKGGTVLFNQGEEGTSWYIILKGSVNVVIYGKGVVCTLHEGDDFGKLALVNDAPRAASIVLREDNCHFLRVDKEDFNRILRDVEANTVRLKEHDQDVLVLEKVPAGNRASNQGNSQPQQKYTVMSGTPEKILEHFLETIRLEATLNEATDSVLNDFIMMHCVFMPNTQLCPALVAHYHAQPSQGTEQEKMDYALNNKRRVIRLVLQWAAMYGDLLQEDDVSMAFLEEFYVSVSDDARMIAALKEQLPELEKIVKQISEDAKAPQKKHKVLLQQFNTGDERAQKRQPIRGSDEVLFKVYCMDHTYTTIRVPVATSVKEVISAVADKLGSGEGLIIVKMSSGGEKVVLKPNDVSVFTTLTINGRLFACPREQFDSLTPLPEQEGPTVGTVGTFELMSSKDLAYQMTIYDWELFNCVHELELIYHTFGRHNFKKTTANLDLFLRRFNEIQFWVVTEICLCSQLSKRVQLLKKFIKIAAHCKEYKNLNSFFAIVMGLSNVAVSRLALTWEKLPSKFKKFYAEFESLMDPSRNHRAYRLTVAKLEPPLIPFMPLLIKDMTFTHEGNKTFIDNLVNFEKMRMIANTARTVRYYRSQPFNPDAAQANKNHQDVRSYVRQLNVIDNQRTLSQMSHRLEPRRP

activation, inactive:
Cn1ccnc1C1CCCCN1C(=O)CN1Cc2ccccc2OC(c2ccccc2F)C1 (stereo unspecified) -10.7%
[N-]=[N+]=N[C@@H](CCN1CC[C@H](O)CCC1=O)c1ccccc1 -13.9%
O=c1onc2cnc3ccccc3n12 -14.3% and -30.2%
c1cncc(OC2CCN(Cc3ccc4c(c3)CN(Cc3ccc5c(c3)OCO5)CCO4)CC2)c1 -2.36%
COc1ncc2nc(-c3cc(F)cc(F)c3)c(=O)n(C3CC3)c2n1 -8.91%
CN(C)c1ccc(/C=C/c2cc[n+](C)c3ccccc23)cc1 -32%
COc1ccc2c(c1)-c1nc(-n3ncc(C(=O)N(C)CCO)c3C3CC3)ncc1CC2 2.48%
CN1CCN(C(c2ccccc2)c2ccccc2)CC1 -2.95% and -1.13%
O=C(Cn1nc2ccccc2n1)N1CCOc2ccc(CN3CCc4sccc4C3)cc2C1 -1.56%
COC(=O)[C@@H]1CC2=CC(=O)CC[C@]2(C)[C@@]23O[C@@H]2C[C@@]2(C)[C@@H](CC[C@@]24CCC(=O)O4)[C@H]13 7.31%
CC(C)Cc1nc2cc(NS(=O)(=O)N(C)C)cc(C(=O)N3CCSCC3)c2n1C -7.73%
COc1cccc(Nc2ncc3ncc(=O)n(C[C@H]4CCCO4)c3n2)c1 -4.49%
O=[N+]([O-])c1ccc2cn[nH]c2c1 -0.713%
COc1cc(=O)n2c(c1C(=O)NCc1ccco1)CCN(Cc1cccc(C)n1)CC2 0.554%
O=C(O)Cc1ccc(CCNS(=O)(=O)c2ccc(Cl)cc2)cc1 -4.72%
O=C(O)c1ccccc1-c1oc2cc(O)ccc2c(=O)c1Oc1ccccc1 -6.47%
COc1ccc([C@@H]2[C@@H](O)[C@H](O)[C@@H](C)N2C)cc1OC -21.9%
c1cncc(-c2cncnc2NCc2cccs2)c1 -6.37%
N[C@@H](C(=O)O)c1ccc(C(=O)O)cc1 -29.8% and -15.6%
OC(CN1CCOCC1)c1ccccc1 (stereo unspecified) -3.67%
CO[C@H](C(=O)[C@@H](O)[C@@H](C)O)C1Cc2cc3cc(O[C@H]4C[C@@H](O[C@H]5C[C@@H](O)[C@H](O)[C@@H](C)O5)[C@@H](O)[C@@H](C)O4)c(C)c(O)c3c(O)c2C(=O)[C@H]1O[C@H]1C[C@@H](O[C@H]2C[C@@H](O[C@H]3C[C@](C)(O)[C@H](O)[C@@H](C)O3)[C@H](O)[C@@H](C)O2)[C@H](O)[C@@H](C)O1 (stereo partly specified) 14% and 18.8%

— PubChem BioAssay AID1645887 (National Center for Advancing Translational Sciences (NCATS), 2021)
